Laboratory results reported in PMC11995724, “Antibiotic target discovery by integrated phenotypic and activity-based profiling of electrophilic fragments” (Cell chemical biology, 2025).
The whole screen tested about 3,200 compounds, of which about 75 (2%) showed an effect of 50% or more. Some of the results follow.

test system: T1, S. aureus MSSA476; parameters: species or system S. aureus MSSA476 (TSB) or V. cholerae SAD30 (LB); 384-well bacterial growth screen at 25 uM, OD600 relative to DMSO control; conditions: relative growth, OD600, TSB; 25 µM; inhibitor
T1 construct: MSSA476

Row | SMILES | % of control remaining [%]
1 | COc1ccc(C(NC(=O)CCl)C2CC2)cc1 (centres unmarked) [4-K19, 2-chloro-N-[cyclopropyl(4-methoxyphenyl)methyl]acetamide] | 108.242
2 | COc1ccc(Cc2cnc(NC(=O)CCl)s2)cc1 [4-F17, 2-chloro-N-{5-[(4-methoxyphenyl)methyl]-1,3-thiazol-2-yl}acetamide] | 146.737
3 | O=C(CCl)NC(Cc1cccc(O)c1)c1ccccc1 (centres unmarked) [7-N20, 2-chloro-N-[2-(3-hydroxyphenyl)-1-phenylethyl]acetamide] | 100.157
4 | Cc1ccc(NC(=O)C(C#N)=Cc2ccccc2OC(F)F)cc1 [9-D05, 2-cyano-3-[2-(difluoromethoxy)phenyl]-N-(4-methylphenyl)prop-2-enamide] | 90.1873
5 | C=CC(=O)N1CCCC1c1cccc(C)c1 (centres unmarked) [1-N11, 1-[2-(3-methylphenyl)pyrrolidin-1-yl]prop-2-en-1-one] | 92.1319
6 | C=CC(=O)Nc1cc(SCc2ccccc2C)ncn1 [1-F08, N-(6-{[(2-methylphenyl)methyl]sulfanyl}pyrimidin-4-yl)prop-2-enamide] | 91.0769
7 | C=CC(=O)NCc1ccc(C(=O)N2CCCOC(C)(C)C2)cc1 [3-N06, N-{[4-(2,2-dimethyl-1,4-oxazepane-4-carbonyl)phenyl]methyl}prop-2-enamide] | 118.764
8 | CCCc1ccc(-c2csc(NC(=O)CCl)n2)cc1 [4-C09, 2-chloro-N-[4-(4-propylphenyl)-1,3-thiazol-2-yl]acetamide] | 5.717
9 | C=CC(=O)NC(C)c1ccc(Oc2ccccc2)c(F)c1 (centres unmarked) [2-H13, N-[1-(3-fluoro-4-phenoxyphenyl)ethyl]prop-2-enamide] | 111.749
10 | Cc1cc(N2CCCC(NC(=O)C(C)Cl)C2=O)n(C)n1 (centres unmarked) [7-B13, 2-chloro-N-[1-(1,3-dimethyl-1H-pyrazol-5-yl)-2-oxopiperidin-3-yl]propanamide] | 83.8305
11 | O=C1C=CC(=O)N1c1cnccn1 [10-P07, 1-(pyrazin-2-yl)-2,5-dihydro-1H-pyrrole-2,5-dione] | 131.875
12 | C=CC(=O)N1CCC(C(=O)Nc2cc(OCC)ccc2Cl)CC1 [1-I20, N-(2-chloro-5-ethoxyphenyl)-1-(prop-2-enoyl)piperidine-4-carboxamide] | 89.6703
13 | C=CC(=O)N1CCCC(C(=O)O)C1 (centres unmarked) [1-G12, 1-(prop-2-enoyl)piperidine-3-carboxylic acid] | 117.099
14 | C=CC(=O)N(CC(C)(C)C)C1CCN(c2ccc(C#N)cn2)CC1 [1-N09, N-[1-(5-cyanopyridin-2-yl)piperidin-4-yl]-N-(2,2-dimethylpropyl)prop-2-enamide] | 109.011
15 | C=CC(=O)N1CCC(C(=O)Nc2cc(Cl)ccc2SCC)CC1 [1-E06, N-[5-chloro-2-(ethylsulfanyl)phenyl]-1-(prop-2-enoyl)piperidine-4-carboxamide] | 80.1758
16 | N#CC(=Cc1cccs1)C(=O)Nc1ccccc1Cl [9-L11, N-(2-chlorophenyl)-2-cyano-3-(thiophen-2-yl)prop-2-enamide] | 88.9888
17 | C=CC(=O)NCc1cscn1 [1-I07, N-[(1,3-thiazol-4-yl)methyl]prop-2-enamide] | 101.275
18 | N#CC(=CC=Cc1ccccc1)C(=O)Nc1ccc(F)c(Cl)c1 [8-O18, N-(3-chloro-4-fluorophenyl)-2-cyano-5-phenylpenta-2,4-dienamide] | 107.552
19 | CC(Cl)C(=O)NC1CCc2nc(-c3cc(F)ccc3F)cn2C1 (centres unmarked) [7-K10, 2-chloro-N-[2-(2,5-difluorophenyl)-5H,6H,7H,8H-imidazo[1,2-a]pyridin-6-yl]propanamide] | 101.727
20 | O=C(CCl)C1CCC2(CC1)CC2 [10-C17, 2-chloro-1-{spiro[2.5]octan-6-yl}ethan-1-one] | 123.438
21 | COc1ccc(C2=NN(C(=O)CCl)C(c3ccc(F)cc3)C2)cc1 (centres unmarked) [4-M20, 2-chloro-1-[5-(4-fluorophenyl)-3-(4-methoxyphenyl)-4,5-dihydro-1H-pyrazol-1-yl]ethan-1-one] | 115.102
22 | C=CC(=O)N1CCCC(n2ccnn2)C1 (centres unmarked) [1-D09, 1-[3-(1H-1,2,3-triazol-1-yl)piperidin-1-yl]prop-2-en-1-one] | 95.2967
23 | C=CC(=O)N[C@H](C)c1ccccc1OC(C)C [3-N16, N-[(1R)-1-[2-(propan-2-yloxy)phenyl]ethyl]prop-2-enamide] | 99.2599
24 | CC(Cl)C(=O)NC(C)c1ncn(C)n1 (centres unmarked) [6-P13, 2-chloro-N-[1-(1-methyl-1H-1,2,4-triazol-3-yl)ethyl]propanamide] | 86.0488
25 | C=CC(=O)N(Cc1cc2cccc(OC)c2o1)[C@@H]1C[C@H]2CC[C@@H]1O2 (racemic) [1-J13, rac-N-[(7-methoxy-1-benzofuran-2-yl)methyl]-N-[(1R,2S,4S)-7-oxabicyclo[2.2.1]heptan-2-yl]prop-2-enamide] | 111.121
26 | Cc1nn(-c2ccccc2)c(C)c1CNC(=O)CCl [6-I08, 2-chloro-N-[(3,5-dimethyl-1-phenyl-1H-pyrazol-4-yl)methyl]acetamide] | 104.146
27 | CC(Cl)C(=O)N1CCN(C2=NS(=O)(=O)c3ccccc32)CC1 (centres unmarked) [7-K11, 3-[4-(2-chloropropanoyl)piperazin-1-yl]-1lambda6,2-benzothiazole-1,1-dione] | 68.1319
28 | N#Cc1ccccc1NC(=O)CCl [5-P04, 2-chloro-N-(2-cyanophenyl)acetamide] | 97.2678
29 | CCCn1c(C)cc(C=C(C#N)C(=O)N2CCC2)c1C [8-L08, 2-(azetidine-1-carbonyl)-3-(2,5-dimethyl-1-propyl-1H-pyrrol-3-yl)prop-2-enenitrile] | 96.9295
